Sequences and labels used below:
T1: RBFOX1 RRM RbFoxmut (Fox-RRM*) (Homo sapiens, UniProt Q9NWB1 109-208, R118D;E147R;N151S;E152T)
T1 sequence: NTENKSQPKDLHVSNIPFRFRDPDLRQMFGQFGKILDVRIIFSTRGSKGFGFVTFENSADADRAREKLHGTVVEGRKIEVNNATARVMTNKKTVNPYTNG

B1: CGAAGAC (DNA:RNA)
RNA: GGGAGACCGGAAUUCAGAUUGUCCCGAAGACUUAAAUCCCGUCGUAGCCACCA
DNA 1: CAATCTGAATTCCGGTCTCCC
DNA 2: TGGTGGCTACGACGGGATT
B2: UAGACGG (DNA:RNA)
RNA: B1 RNA with C25U, G26A, A27G, G29C, A30G, C31G
DNA 1: CAATCTGAATTCCGGTCTCCC
DNA 2: TGGTGGCTACGACGGGATT
B3: GUUCGCU (DNA:RNA)
RNA: B1 RNA with C25G, G26U, A27U, A28C, A30C, C31U
DNA 1: CAATCTGAATTCCGGTCTCCC
DNA 2: TGGTGGCTACGACGGGATT
B4: UUUGCUC (DNA:RNA)
RNA: B1 RNA with C25U, G26U, A27U, A28G, G29C, A30U
DNA 1: CAATCTGAATTCCGGTCTCCC
DNA 2: TGGTGGCTACGACGGGATT
B5: GAGCCUA (DNA:RNA)
RNA: GGGAGACCGGAAUUCAGAUUGUCCGAGCCUAUUAAAUCCCGUCGUAGCCACCA
DNA 1: CAATCTGAATTCCGGTCTCCC
DNA 2: TGGTGGCTACGACGGGATT
B6: AAGUCGU (DNA:RNA)
RNA: B5 RNA with G25A, C28U, U30G, A31U
DNA 1: CAATCTGAATTCCGGTCTCCC
DNA 2: TGGTGGCTACGACGGGATT
B7: UGUCAAG (DNA:RNA)
RNA: B1 RNA with C25U, A27U, A28C, G29A, C31G
DNA 1: CAATCTGAATTCCGGTCTCCC
DNA 2: TGGTGGCTACGACGGGATT
B8: GGCGGUA (DNA:RNA)
RNA: B5 RNA with A26G, G27C, C28G, C29G
DNA 1: CAATCTGAATTCCGGTCTCCC
DNA 2: TGGTGGCTACGACGGGATT
B9: ACGUGGA (DNA:RNA)
RNA: B5 RNA with G25A, A26C, C28U, C29G, U30G
DNA 1: CAATCTGAATTCCGGTCTCCC
DNA 2: TGGTGGCTACGACGGGATT

Substitutions are numbered along the chain they refer to; changes in the protein carry UniProt numbers. The list shows a part of the results.

The assay deals with T1, RBFOX1 RRM RbFoxmut (Fox-RRM*). Briefly: EMSA; HiTS-Eq, 1 nM pool, 10 min; buffer printed only for the single-RNA assays: 10 mM Tris pH 7.5, 150 mM NaCl, 3.4 mM EDTA, 0.001% NP-40, 30 C. As to conditions: tags: His6 N-terminal (pET28a); label: 5' 32P. The procedure, abridged:
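These values rest on relative association constants, computed from read-count changes of each RNA species versus the control reaction and normalised to the cognate motif. Reads came from free RNA recovered by 8% native PAGE after purified RbFox RRM (wild type or mutant) at increasing concentrations was equilibrated for 10 min in 50 µL with 1 nM of a 5′-radiolabelled pool with 7 randomized nucleotides and DNA-annealed flanks.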
In general terms: A gel shift assay detects complexes by their altered migration in electrophoresis.
With B1, the binding signal was 0.102 KA relative to UGCAUGU.

As for B2, the binding signal was 0.0799 KA relative to UGCAUGU.

For the molecule B3, the binding signal is 0.107 KA relative to UGCAUGU.

For B4, the binding signal was 0.0836 KA relative to UGCAUGU.

As to B5, the binding signal is 0.0827 KA relative to UGCAUGU.

As to B6, the binding signal is 0.108 KA relative to UGCAUGU.

B7: the binding signal was 0.11 KA relative to UGCAUGU.

On to B8, for which the binding signal is 0.146 KA relative to UGCAUGU.

Consider B9, for which the binding signal was 0.0939 KA relative to UGCAUGU.

Source of the values: publication PMC9911399, “Two distinct binding modes provide the RNA-binding protein RbFox with extraordinary sequence specificity”.
